# Data reported in PubChem BioAssay (Tox21).
# Where “and” joins values, the source holds several entries; their conditions need not be identical. Equal entries are not always repeated. This list was built around the results that the source calls inconclusive (neither active nor inactive); the mix of calls is not that of the screen. For some of these results: A potency beside an inconclusive call is a rough fit, not a confirmed value. Calls of active or inactive are those of the source. Unless noted, the call rests on the fitted dose curve; in most records, active means well fitted curve in the direction sought with a large enough effect in the repeat runs; inconclusive means weak or mixed curves; inactive means no such curve, though single readings can be large; an effect the other way counts as inactive or inconclusive.
# Tests used:
# [1] = qHTS assay for identifying genotoxic compounds that show differential cytotoxicity against isogenic chicken DT40 cell lines with known DNA damage response pathways - wild type cell line (AID 743012); details: DT40 wild type chicken cells viability, CellTiter-Glo, 40 h; activity change, negative = cytotoxicity: at 68.4 µM (top of the series) unless noted; further: potency means the concentration at half of the fitted maximal effect; nearly all actives have a fitted effect of over 60% in size
# Outline: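 Viability by ATP luminescence (CellTiter-Glo, 30 min RT) after 40 h compound treatment at 37 C/5% CO2, using 300 parental DNA repair-proficient DT40 cells per well.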
# [2] = qHTS assay for identifying genotoxic compounds that show differential cytotoxicity against isogenic chicken DT40 cell lines with known DNA damage response pathways - Rad54/Ku70 mutant cell line (AID 743015); details: DT40 Rad54/Ku70 mutant viability, CellTiter-Glo, 40 h; activity change, negative = cytotoxicity: at 66.8 µM (top of the series) unless noted; further: on the % scale 0 is the no-effect control and ±100 the full control effect; nearly all actives have a fitted effect of over 60% in size
# [3] = qHTS assay to identify small molecule antagonists of the estrogen receptor alpha (ER-alpha) signaling pathway using the BG1 cell line - cell viability counter screen (AID 743081); details: BG1Luc4E2 viability, CellTiter-Fluor, 22 h; activity change, negative = cytotoxicity: at 70.3 µM (top of the series) unless noted;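 further: compound given together with 17beta-estradiol as the ER stimulus; potency means the concentration at half of the fitted maximal effect; nearly all actives have a fitted effect of over 45% in size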
# [4] = qHTS assay to identify small molecule phospholipidosis (PLD) inducers (AID 1259344; active means well fitted curve in the direction sought with a large enough effect; inconclusive means small, poorly fitted or top-dose-only effect, or another doubt; inactive means no such curve, though single readings can be large; an effect the other way counts as inactive or inconclusive; further: potency means the concentration at half of the fitted maximal effect); details: HepG2 phospholipidosis, LipidTOX Red imaging, 24 h; PLD induction: at 38.3 µM (top of the series) unless noted
# Outline: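 Image-based: LipidTOX Red pit count/intensity per well and per cell; HepG2, 24 h compound at 37 C, PFA fixation, Hoechst counterstain.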
# [5] = qHTS assay for small molecule disruptors of the mitochondrial membrane potential (AID 720635); details: HepG2 mitochondrial membrane potential, Mito-MPS dye ratio; ratio activity, negative = MMP loss: at 83.2 µM (top of the series) unless noted; further: potency means the concentration at half of the fitted maximal effect; on ratio activity, negative = MMP loss: on the % scale 0 is the no-effect control and ±100 the full control effect
# Outline: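 HepG2 cells exposed to compound 1 hr at 37C, then Mito-MPS dye 30 min. Ratio read of aggregate (540/590 nm) versus monomer (490/535 nm) fluorescence.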
# [6] = qHTS assay to identify small molecule antagonists of the thyroid receptor (TR) signaling pathway - cell viability counter screen (AID 743064); details: GH3.TRE-Luc viability, CellTiter-Fluor, 24 h; activity change, negative = cytotoxic: at 70.3 µM (top of the series) unless noted; further: potency means the concentration at half of the fitted maximal effect; nearly all actives have a fitted effect of over 50% in size
# Outline: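 Viability of T3-stimulated (1 nM final) GH3.TRE-Luc cells is measured by CellTiter-Fluor fluorescence after 23.5 h compound exposure at 37 °C plus 30 min reagent incubation.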
# [7] = qHTS assay to identify small molecule that activate the aryl hydrocarbon receptor (AhR) signaling pathway - cell viability counter screen (AID 743086);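 further: HepG2 liver cells carrying the AhR DRE luciferase reporter; on the % scale 0 is the no-effect control and ±100 the full control effect; nearly all actives have a fitted effect of over 45% in size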
# Outline: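 HepG2-AhR-luc (HG2L7.5c1) cells, 4000/well, treated 24 h at 37 C with compound; viability measured as CellTiter-Fluor fluorescence after 30 min in the same wells as the luciferase read.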
# [8] = qHTS assay to identify small molecule antagonists of the peroxisome proliferator-activated receptor gamma (PPARg) signaling pathway - cell viability counter screen (AID 743194); details: PPARg-bla HEK293H viability, CellTiter-Glo luminescence, 17 h, co-treated with 50 nM rosiglitazone; activity change, negative = cytotoxicity: at 62.6 µM (top of the series) unless noted; further: potency means the concentration at half of the fitted maximal effect; nearly all actives have a fitted effect of over 55% in size
# Outline: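 Cytotoxicity counter screen in PPARg-bla HEK293H cells, same wells as reporter assay. Compounds plus 50 nM rosiglitazone (final) for 17 h at 37 C, then viability read by CellTiter-Glo luminescence.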
# [9] = qHTS assay for small molecule agonists of the antioxidant response element (ARE) signaling pathway (AID 743202; active means well fitted activation curve with a large enough effect in the signal ratio in the repeat runs, not every such curve was filed as active; inconclusive means weak or mixed curves, or effect the other way; inactive means no such curve, though single readings can be large or run the other way; the % refers to the signal ratio; further: on the % scale 0 is the no-effect control and ±100 the full control effect); details: HepG2 ARE-bla reporter, beta-lactamase FRET, 16 h; activation: at 73.3 µM (top of the series) unless noted
# Outline: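 HepG2 ARE-bla cells; 16 h treatment at 37 C; FRET-based beta-lactamase fluorescence read after 2 h substrate incubation at room temperature.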
# [10] = target: Vitamin D3 receptor (Homo sapiens) (UniProt P11473); test: qHTS assay to identify small molecule antagonists of the vitamin D receptor (VDR) signaling pathway (AID 743223; active means well fitted inhibition curve with a large enough effect in the signal ratio in the repeat runs, not every such curve was filed as active; inconclusive means weak or mixed curves, or effect the other way; inactive means no such curve, though single readings can be large or run the other way; the % refers to the signal ratio; further: potency means the concentration at half of the fitted maximal effect); details: VDR-UAS-bla HEK293T, beta-lactamase FRET ratio, 16 h; activity change, negative = inhibition: at 61 µM (top of the series) unless noted
# Outline: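 Quantitative HTS in VDR-bla reporter cells stimulated with 1alpha,25-dihydroxyvitamin D3, 3 nM final. Compound exposure 16 h, 37C, 5% CO2. Read-out: beta-lactamase FRET substrate fluorescence, 2 h RT.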
# [11] = qHTS assay to identify small molecule antagonists of the sonic hedgehog signaling (Shh) pathway (AID 1259369; calls by dose curve; further: nearly all actives have a fitted effect of over 45% in size; further: potency means the concentration at half of the fitted maximal effect; on activity change, negative = inhibition: on the % scale 0 is the no-effect control and ±100 the full control effect)
# Outline: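 Antagonist mode: compound added to 3T3 Gli1-Luc cells followed by conditioned-medium stimulation, 24 h at 37 C, 5% CO2. Inhibition taken as loss of Gli1-driven luciferase luminescence.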
# [12] = qHTS assay to identify small molecule antagonists of the progesterone receptor (PR) signaling pathway - cell viability counter screen (AID 1346798); further: potency means the concentration at half of the fitted maximal effect; nearly all actives have a fitted effect of over 50% in size
# Outline: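 CellTiter-Glo luminescence; PR-UAS-bla HEK293T, 3,000 cells/well; compound + R5020, 16 hr, 37C/5% CO2; 30 min RT before read.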
# [13] = qHTS assay for identifying genotoxic compounds that show differential cytotoxicity against isogenic chicken DT40 cell lines with known DNA damage response pathways - Rev3 mutant cell line (AID 743014); details: chicken DT40 Rev3-/- viability, CellTiter-Glo, 40 h; activity, negative = cytotoxicity: at 68.4 µM (top of the series) unless noted; further: potency means the concentration at half of the fitted maximal effect; nearly all actives have a fitted effect of over 55% in size
# [14] = target: Peroxisome proliferator-activated receptor gamma (Homo sapiens) (UniProt P37231); test: qHTS assay to identify small molecule antagonists of the peroxisome proliferator-activated receptor gamma (PPARg) signaling pathway (AID 743191; calls by dose curve; further: on the % scale 0 is the no-effect control and ±100 the full control effect; nearly all actives have a fitted effect of over 30% in size); details: HEK293H PPARg-UAS-bla, beta-lactamase ratio, antagonist, 17 h; ratio activity, negative = inhibition: at 62.6 µM (top of the series) unless noted
# Outline: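 GeneBLAzer PPARg UAS-bla HEK293H cells, 5 h post-plating, exposed to compounds 17 h at 37C. LiveBLAzer B/G FRET substrate added for 1 h at room temperature; beta-lactamase reporter read by fluorescence intensity.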
# [15] = qHTS assay to identify small molecule agonists of the vitamin D receptor (VDR) signaling pathway - cell viability counter screen (AID 743224); further: on the % scale 0 is the no-effect control and ±100 the full control effect; nearly all actives have a fitted effect of over 50% in size
# Outline: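 Counter screen run in the same wells as the VDR-bla reporter assay: CellTiter-Glo luminescence, 30 min at room temperature, after 16 h compound treatment at 37C of cells pre-plated for 4 h.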
# [16] = Caspase-3/7 induction in HepG2 cells by small molecules, qHTS cell viability counter screen (AID 1346981); further: on the % scale 0 is the no-effect control and ±100 the full control effect; nearly all actives have a fitted effect of over 30% in size
# Outline: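 CellTiter-Fluor fluorescence measured viability in the same wells used for Caspase-Glo 3/7. HepG2 (wild type) at 2,000 cells/well were pre-incubated 5 hr, dosed, and given reagent at 16 hr, with 1 hr further at 37C.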
# [17] = target: Voltage-gated inwardly rectifying potassium channel KCNH2 (Homo sapiens) (UniProt Q12809); test: Human Ether-a-go-go-Related Gene (hERG) channel small molecule antagonists: fluorescence cell-based qHTS assay (AID 1671200);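 further: hERG-expressing U2OS cells given a thallium stimulus after FluxOR II dye loading; on the % scale 0 is the no-effect control and ±100 the full control effect; nearly all actives have a fitted effect of over 50% in size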
# Outline: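 Thallium served as the potassium surrogate; its influx into dye-loaded U2OS cells carrying the channel was measured by fluorescence over 2 min.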
# Tags describe the fitted curve by direction and shape or compound fluorescence and quenching.
# Sequence of UniProt P37231 (P37231 whole entry, looked up): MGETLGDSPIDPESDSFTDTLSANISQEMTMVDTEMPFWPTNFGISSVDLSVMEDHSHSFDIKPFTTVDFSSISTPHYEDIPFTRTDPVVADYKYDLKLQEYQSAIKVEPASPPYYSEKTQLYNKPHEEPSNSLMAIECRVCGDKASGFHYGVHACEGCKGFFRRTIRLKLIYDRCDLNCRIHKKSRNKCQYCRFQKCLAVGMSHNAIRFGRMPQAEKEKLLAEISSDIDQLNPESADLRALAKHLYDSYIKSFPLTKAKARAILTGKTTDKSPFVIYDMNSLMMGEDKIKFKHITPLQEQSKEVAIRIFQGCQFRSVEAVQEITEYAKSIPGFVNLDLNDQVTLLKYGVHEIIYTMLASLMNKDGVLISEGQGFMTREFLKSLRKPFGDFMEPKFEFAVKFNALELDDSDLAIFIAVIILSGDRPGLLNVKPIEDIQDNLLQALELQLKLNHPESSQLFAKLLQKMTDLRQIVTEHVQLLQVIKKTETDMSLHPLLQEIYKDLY
# Sequence of UniProt Q12809 (Q12809 whole entry, looked up): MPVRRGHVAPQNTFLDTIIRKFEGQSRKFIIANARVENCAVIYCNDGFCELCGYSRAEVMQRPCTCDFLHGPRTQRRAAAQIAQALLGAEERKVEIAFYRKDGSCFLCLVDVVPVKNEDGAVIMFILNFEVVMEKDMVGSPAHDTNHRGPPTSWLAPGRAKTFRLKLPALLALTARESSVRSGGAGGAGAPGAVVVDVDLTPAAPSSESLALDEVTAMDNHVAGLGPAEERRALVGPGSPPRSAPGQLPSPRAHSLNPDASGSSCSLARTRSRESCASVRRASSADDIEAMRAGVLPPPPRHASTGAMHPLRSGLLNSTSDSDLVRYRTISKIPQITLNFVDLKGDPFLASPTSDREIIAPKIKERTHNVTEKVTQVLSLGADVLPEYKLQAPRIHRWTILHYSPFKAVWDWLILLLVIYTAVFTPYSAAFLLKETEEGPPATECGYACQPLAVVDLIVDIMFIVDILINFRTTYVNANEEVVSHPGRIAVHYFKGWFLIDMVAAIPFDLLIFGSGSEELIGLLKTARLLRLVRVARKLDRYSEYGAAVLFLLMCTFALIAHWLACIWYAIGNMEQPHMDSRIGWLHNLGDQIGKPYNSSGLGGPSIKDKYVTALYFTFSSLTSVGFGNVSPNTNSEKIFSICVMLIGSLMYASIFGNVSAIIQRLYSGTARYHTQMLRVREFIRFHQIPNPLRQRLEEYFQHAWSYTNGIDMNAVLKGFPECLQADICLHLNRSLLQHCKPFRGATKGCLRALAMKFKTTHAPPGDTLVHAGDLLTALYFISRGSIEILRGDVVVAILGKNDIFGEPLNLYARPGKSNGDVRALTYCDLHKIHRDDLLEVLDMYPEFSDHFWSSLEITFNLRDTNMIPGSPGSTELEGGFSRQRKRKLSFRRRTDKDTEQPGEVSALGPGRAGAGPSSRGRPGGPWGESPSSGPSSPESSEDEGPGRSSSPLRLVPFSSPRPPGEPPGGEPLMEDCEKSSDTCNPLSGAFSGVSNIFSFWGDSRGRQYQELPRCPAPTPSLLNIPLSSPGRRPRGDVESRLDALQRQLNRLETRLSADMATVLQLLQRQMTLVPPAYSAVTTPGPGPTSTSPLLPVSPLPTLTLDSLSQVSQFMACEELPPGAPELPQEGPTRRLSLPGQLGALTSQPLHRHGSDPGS
# Sequence of UniProt P11473 (P11473 whole entry, looked up): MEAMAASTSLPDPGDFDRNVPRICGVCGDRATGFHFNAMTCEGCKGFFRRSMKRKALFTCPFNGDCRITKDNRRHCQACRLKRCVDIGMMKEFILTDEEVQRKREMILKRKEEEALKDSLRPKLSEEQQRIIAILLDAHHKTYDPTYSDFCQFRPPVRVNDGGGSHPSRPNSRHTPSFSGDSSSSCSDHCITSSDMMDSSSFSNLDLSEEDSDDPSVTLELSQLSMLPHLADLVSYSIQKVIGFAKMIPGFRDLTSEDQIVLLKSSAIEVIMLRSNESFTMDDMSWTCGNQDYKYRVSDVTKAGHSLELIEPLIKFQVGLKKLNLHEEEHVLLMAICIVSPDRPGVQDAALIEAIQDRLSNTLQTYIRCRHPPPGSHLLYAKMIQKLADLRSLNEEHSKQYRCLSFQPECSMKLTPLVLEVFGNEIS
smiles,measurement,setting,value
CC#CCC(C)[C@H](O)/C=C/[C@@H]1[C@H]2C/C(=C/CCCC(=O)O)C[C@H]2C[C@H]1O (some centres undefined),Potency,[1],"inconclusive: 33.5 µM [cytotoxic, single point]"
same,Potency,[2],inactive
same,Potency,[3],"inconclusive: 15 µM [rising, partial curve, poor fit]"
same,Potency,[4],"inconclusive: 20 µM [activator, single point]"
O=NO,Potency,[5],"inconclusive: 19.2 µM [activator, partial curve, poor fit] and inactive and inconclusive: 24.3 µM [activator, single point]"
same,Potency,[6],"inconclusive: 48.3 µM [rising, partial curve, poor fit]"
same,Potency,[7],inactive
same,Potency,[8],"inconclusive: 11 µM [rising, partial curve, poor fit]"
same,activation,[9],inconclusive: 8.21%
same,Potency,[10],"inconclusive: 19.4 µM [activator, single point]"
same,Potency,[11],"inconclusive: 2.73 µM [inhibitor, single point]"
same,Potency,[12],"inconclusive: 1.37 µM [cytotoxic, single point]"
O/N=C/C=N/O,Potency,[13],"inconclusive: 17.2 µM [cytotoxic, full curve, poor fit]"
same,Potency,[14],inactive
same,Potency,[9],inactive
same,Potency,[15],inactive
same,Potency,[11],inactive
same,Potency,[16],inactive
same,Potency,[17],inactive
